{"source": "the supplement of paper PMC8728848", "binders": {"B1": {"name": "MAL-II (Maackia amurensis), P93248 (protein)", "chain": "ATSNSKPTQVLLATFLTFFFLLLNNVNSSDELSFTINNFVPNEADLLFQGEASVSSTGVLQLTRVENGQPQQYSVGRALYAAPVRIWDNTTGSVASFSTSFTFVVKAPNPTITSDGLAFFLAPPDSQIPSGRVSKYLGLFNNSNSDSSNQIVAVEFDTYFGHSYDPWDPNYRHIGIDVNGIESIKTVQWDWINGGVAFATITYLAPNKTLIASLVYPSNQTSFIVAASVDLKEILPEWVRVGFSAATGYPTQVETHDVLSWSFTSTLEANSDAATENNVHIARYTA"}}, "test_in_all_cases": "glycan array binding signal (z-score within array); higher = stronger binding", "details_in_all_cases": "glycan notation: IUPAC condensed, linker removed", "key": {"[1]": {"target": "Gal(b1-4)GlcNAc(b1-3)[Gal(b1-4)GlcNAc(b1-6)]Gal(b1-4)GlcNAc", "outline": "(§1)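 Arrays were curated from the Consortium for Functional Glycomics database, 3228 in total, and kept only where the protein sequence was available. Binding is expressed as a within-array Z-score. This score was averaged across arrays of the same protein sequence at different concentrations or buffers and across linkers, and negative values can be read as non-binding.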"}, "[2]": {"target": "Gal(b1-4)GlcNAc(b1-3)[Gal(b1-4)GlcNAc(b1-6)]GalNAc", "outline": "as §1"}, "[3]": {"target": "Gal(b1-4)GlcNAc(b1-3)[GlcNAc(b1-6)]Gal(b1-4)GlcNAc", "outline": "as §1"}, "[4]": {"target": "Gal(b1-4)GlcNAc(b1-6)Gal(b1-4)GlcNAc", "outline": "as §1"}, "[5]": {"target": "Gal(b1-4)GlcNAc(b1-6)Gal(b1-4)GlcNAc(b1-6)GalNAc", "outline": "as §1"}, "[6]": {"target": "Gal(b1-4)GlcNAc(b1-6)GalNAc", "outline": "as §1"}, "[7]": {"target": "Gal(b1-4)GlcNAc(b1-6)[Gal(b1-3)]GalNAc", "outline": "as §1"}, "[8]": {"target": "Gal(b1-4)GlcNAc(b1-6)[Gal(b1-4)GlcNAc(b1-3)]GalNAc", "outline": "as §1"}, "Gal(b1-4)GlcNAc6P": {"target": "Gal(b1-4)GlcNAc6P", "outline": "as §1"}, "Gal(b1-6)Gal": {"target": "Gal(b1-6)Gal", "outline": "as §1"}, "Gal3S(b1-3)GalNAc": {"target": "Gal3S(b1-3)GalNAc", "outline": "as §1"}, "Gal3S(b1-3)GlcNAc": {"target": "Gal3S(b1-3)GlcNAc", "outline": "as §1"}, "[9]": {"target": "Gal3S(b1-3)[Fuc(a1-4)]GlcNAc", "outline": "as §1"}, "Gal3S(b1-4)Glc": {"target": "Gal3S(b1-4)Glc", "outline": "as §1"}, "Gal3S(b1-4)Glc6S": {"target": "Gal3S(b1-4)Glc6S", "outline": "as §1"}, "Gal3S(b1-4)GlcNAc": {"target": "Gal3S(b1-4)GlcNAc", "outline": "as §1"}, "Gal3S(b1-4)GlcNAc6S": {"target": "Gal3S(b1-4)GlcNAc6S", "outline": "as §1"}, "[10]": {"target": "Gal3S(b1-4)[Fuc(a1-3)]Glc", "outline": "as §1"}, "[11]": {"target": "Gal3S(b1-4)[Fuc(a1-3)]Glc6S", "outline": "as §1"}, "[12]": {"target": "Gal3S(b1-4)[Fuc(a1-3)]GlcNAc", "outline": "as §1"}, "[13]": {"target": "Gal3S(b1-4)[Fuc(a1-3)]GlcNAc6S", "outline": "as §1"}, "Gal3S4S(b1-4)GlcNAc": {"target": "Gal3S4S(b1-4)GlcNAc", "outline": "as §1"}, "Gal3S6S(b1-4)GlcNAc": {"target": "Gal3S6S(b1-4)GlcNAc", "outline": "as §1"}, "Gal3S6S(b1-4)GlcNAc6S": {"target": "Gal3S6S(b1-4)GlcNAc6S", "outline": "as §1"}, "Gal4S(b1-4)GlcNAc": {"target": "Gal4S(b1-4)GlcNAc", "outline": "as §1"}, "Gal4S6S(b1-4)GlcNAc": {"target": "Gal4S6S(b1-4)GlcNAc", "outline": "as §1"}, "Gal6P(b1-4)GlcNAc": {"target": "Gal6P(b1-4)GlcNAc", "outline": "as §1"}, "Gal6S(b1-3)GlcNAc": {"target": "Gal6S(b1-3)GlcNAc", "outline": "as §1"}, "Gal6S(b1-3)GlcNAc6S": {"target": "Gal6S(b1-3)GlcNAc6S", "outline": "as §1"}, "Gal6S(b1-4)Glc": {"target": "Gal6S(b1-4)Glc", "outline": "as §1"}, "Gal6S(b1-4)Glc6S": {"target": "Gal6S(b1-4)Glc6S", "outline": "as §1"}, "Gal6S(b1-4)GlcNAc": {"target": "Gal6S(b1-4)GlcNAc", "outline": "as §1"}, "Gal6S(b1-4)GlcNAc6S": {"target": "Gal6S(b1-4)GlcNAc6S", "outline": "as §1"}, "GalNAc(a1-3)Gal": {"target": "GalNAc(a1-3)Gal", "outline": "as §1"}, "GalNAc(a1-3)GalNAc": {"target": "GalNAc(a1-3)GalNAc", "outline": "as §1"}, "[14]": {"target": "GalNAc(a1-3)GalNAc(a1-3)Gal(a1-4)Gal(b1-4)GlcNAc", "outline": "as §1"}, "[15]": {"target": "GalNAc(a1-3)GalNAc(b1-3)Gal(a1-4)Gal(b1-4)Glc", "outline": "as §1"}, "GalNAc(b1-3)Gal": {"target": "GalNAc(b1-3)Gal", "outline": "as §1"}, "[16]": {"target": "GalNAc(b1-3)Gal(a1-4)Gal(b1-4)GlcNAc", "outline": "as §1"}, "[17]": {"target": "GalNAc(b1-3)Gal(a1-4)Gal(b1-4)GlcNAc(b1-3)Gal(b1-4)Glc", "outline": "as §1"}, "[18]": {"target": "GalNAc(b1-3)Gal(a1-6)Gal(b1-4)Glc", "outline": "as §1"}, "GalNAc(b1-3)GalNAc": {"target": "GalNAc(b1-3)GalNAc", "outline": "as §1"}, "GalNAc(b1-3)GlcNAc": {"target": "GalNAc(b1-3)GlcNAc", "outline": "as §1"}, "GalNAc(b1-4)Gal(b1-4)Glc": {"target": "GalNAc(b1-4)Gal(b1-4)Glc", "outline": "as §1"}, "GalNAc(b1-4)GlcNAc": {"target": "GalNAc(b1-4)GlcNAc", "outline": "as §1"}}, "note": "The list shows a part of the results.", "data": [{"binder": "B1", "values": [{"measurement": "glycan array binding signal (z-score)", "setting": "[1]", "result": -0.185}, {"measurement": "glycan array binding signal (z-score)", "setting": "[2]", "result": -0.226}, {"measurement": "glycan array binding signal (z-score)", "setting": "[3]", "result": -0.159}, {"measurement": "glycan array binding signal (z-score)", "setting": "[4]", "result": -0.23}, {"measurement": "glycan array binding signal (z-score)", "setting": "[5]", "result": -0.216}, {"measurement": "glycan array binding signal (z-score)", "setting": "[6]", "result": -0.169}, {"measurement": "glycan array binding signal (z-score)", "setting": "[7]", "result": -0.197}, {"measurement": "glycan array binding signal (z-score)", "setting": "[8]", "result": -0.19}, {"measurement": "glycan array binding signal (z-score)", "setting": "Gal(b1-4)GlcNAc6P", "result": -0.169}, {"measurement": "glycan array binding signal (z-score)", "setting": "Gal(b1-6)Gal", "result": -0.075}, {"measurement": "glycan array binding signal (z-score)", "setting": "Gal3S(b1-3)GalNAc", "result": 8.15}, {"measurement": "glycan array binding signal (z-score)", "setting": "Gal3S(b1-3)GlcNAc", "result": 2.09}, {"measurement": "glycan array binding signal (z-score)", "setting": "[9]", "result": -0.155}, {"measurement": "glycan array binding signal (z-score)", "setting": "Gal3S(b1-4)Glc", "result": 1.81}, {"measurement": "glycan array binding signal (z-score)", "setting": "Gal3S(b1-4)Glc6S", "result": 3.27}, {"measurement": "glycan array binding signal (z-score)", "setting": "Gal3S(b1-4)GlcNAc", "result": 1.84}, {"measurement": "glycan array binding signal (z-score)", "setting": "Gal3S(b1-4)GlcNAc6S", "result": 6.03}, {"measurement": "glycan array binding signal (z-score)", "setting": "[10]", "result": -0.216}, {"measurement": "glycan array binding signal (z-score)", "setting": "[11]", "result": 0.424}, {"measurement": "glycan array binding signal (z-score)", "setting": "[12]", "result": -0.311}, {"measurement": "glycan array binding signal (z-score)", "setting": "[13]", "result": 2.12}, {"measurement": "glycan array binding signal (z-score)", "setting": "Gal3S4S(b1-4)GlcNAc", "result": -0.162}, {"measurement": "glycan array binding signal (z-score)", "setting": "Gal3S6S(b1-4)GlcNAc", "result": -0.222}, {"measurement": "glycan array binding signal (z-score)", "setting": "Gal3S6S(b1-4)GlcNAc6S", "result": 0.18}, {"measurement": "glycan array binding signal (z-score)", "setting": "Gal4S(b1-4)GlcNAc", "result": -0.2}, {"measurement": "glycan array binding signal (z-score)", "setting": "Gal4S6S(b1-4)GlcNAc", "result": -0.156}, {"measurement": "glycan array binding signal (z-score)", "setting": "Gal6P(b1-4)GlcNAc", "result": -0.164}, {"measurement": "glycan array binding signal (z-score)", "setting": "Gal6S(b1-3)GlcNAc", "result": -0.431}, {"measurement": "glycan array binding signal (z-score)", "setting": "Gal6S(b1-3)GlcNAc6S", "result": -0.186}, {"measurement": "glycan array binding signal (z-score)", "setting": "Gal6S(b1-4)Glc", "result": -0.207}, {"measurement": "glycan array binding signal (z-score)", "setting": "Gal6S(b1-4)Glc6S", "result": -0.185}, {"measurement": "glycan array binding signal (z-score)", "setting": "Gal6S(b1-4)GlcNAc", "result": -0.242}, {"measurement": "glycan array binding signal (z-score)", "setting": "Gal6S(b1-4)GlcNAc6S", "result": -0.341}, {"measurement": "glycan array binding signal (z-score)", "setting": "GalNAc(a1-3)Gal", "result": -0.218}, {"measurement": "glycan array binding signal (z-score)", "setting": "GalNAc(a1-3)GalNAc", "result": -0.27}, {"measurement": "glycan array binding signal (z-score)", "setting": "[14]", "result": -0.278}, {"measurement": "glycan array binding signal (z-score)", "setting": "[15]", "result": -0.176}, {"measurement": "glycan array binding signal (z-score)", "setting": "GalNAc(b1-3)Gal", "result": -0.245}, {"measurement": "glycan array binding signal (z-score)", "setting": "[16]", "result": -0.185}, {"measurement": "glycan array binding signal (z-score)", "setting": "[17]", "result": -0.107}, {"measurement": "glycan array binding signal (z-score)", "setting": "[18]", "result": -0.126}, {"measurement": "glycan array binding signal (z-score)", "setting": "GalNAc(b1-3)GalNAc", "result": -0.083}, {"measurement": "glycan array binding signal (z-score)", "setting": "GalNAc(b1-3)GlcNAc", "result": -0.211}, {"measurement": "glycan array binding signal (z-score)", "setting": "GalNAc(b1-4)Gal(b1-4)Glc", "result": -0.041}, {"measurement": "glycan array binding signal (z-score)", "setting": "GalNAc(b1-4)GlcNAc", "result": -0.214}]}]}
